Measured values reported in paper PMC2265467 (PLoS Genetics, 2008).

Key:
[1] = tested on: CHO cells infected by P. aeruginosa PAK; settings: for decrease in the number of dead/dying CHO cells: flow cytometry, 2 h, infected without compound = 100% lysis; for mean fluorescent intensity of 7-AAD: 2 h infection, background 7.42, infection control 18.2
Experimental: To determine if the small molecule inhibitor, exosin, could modulate the viability of CHO cells during P. aeruginosa infection, apoptotic CHO cells and living CHO cells were distinguished using the exclusion dye 7-AAD. Here, CHO cells were exposed to P. aeruginosa with or without the small molecule inhibitor for 2 hours, and the fraction of apoptotic cells was measured by 7-AAD staining and flow cytometry.

[2] = tested on: CHO cells infected by P. aeruginosa PAK
From the text: […] | […] | […] | […] | […]

[3] = tested on: P. aeruginosa PAK

Structure (SMILES)	protective effect in CHO cell infection, flow cytometry (in words) [1]	decrease in the number of dead/dying CHO cells ([1]; 20 µM)	decrease in the number of dead/dying CHO cells ([1]; 40 µM)	decrease in the number of dead/dying CHO cells ([1]; 80 µM)	protective effect in CHO cell infection, lysis / LDH assay (in words) [2]	reduction in cell lysis (LDH release) ([2]; 20 µM)	reduction in cell lysis (LDH release) ([2]; 40 µM)	reduction in cell lysis (LDH release) ([2]; 80 µM)	mean fluorescent intensity of 7-AAD ([1]; 20 µM)	mean fluorescent intensity of 7-AAD ([1]; 40 µM)	mean fluorescent intensity of 7-AAD ([1]; 80 µM)	Dead CHO cells ([1]; 80 µM, P.a. PAK, MOI 10, 2 h)	Living CHO cells ([1]; 80 µM, P.a. PAK, MOI 10, 2 h)	effect on Pseudomonas growth (optical density) [3]
CCC1CN(C(=O)Nc2ccc(C)cc2)c2cc(Cl)ccc2O1 (stereo not drawn) [exosin-5138]	strong protective effect	25.20%	44.05%	60.83%	showed a protective effect	9.34%	18.61%	24.64%						
CCC1CN(C(=O)Nc2ccc(C)cc2)c2ccccc2O1 (stereo not drawn) [exosin-5316]	exerted a protective effect				showed a protective effect	7.94%	12.84%	15.81%						
CCC1CN(C(=O)Nc2cccc3c2CCCC3)c2ccccc2O1 (stereo not drawn) [exosin-5340]	no protective effect													
CCc1ccc(NC(=O)N2CC(CC)Oc3ccccc32)cc1 (stereo not drawn) [exosin]					protected CHO cells from lysis	6.93%	13.92%	12.90%	13.4	11.3	10.3	20.31%	79.35%	did not affect Pseudomonas growth

Read-outs that look alike come from different tables or passages of the source.
